Source: the supplement of paper PMC4604168 (melanoma cell lines)
The other results are listed elsewhere or left out. Many values rest on one well or one pass, so single values are uncertain.

Experiments:
Test in all cases: cell count relative to DMSO control; melanoma cells; higher = more viable cells
Settings in all cases: library dose: standard library concentration; 72 h
[1] = test system: G361
[2] = test system: IPC-298
[3] = test system: IST-MEL1
[4] = test system: LB2518-MEL
[5] = test system: LOXIMVI
[6] = test system: MEL-HO
[7] = test system: MZ2-MEL
[8] = test system: MeWo
[9] = test system: RPMI7951
[10] = test system: RVH-421
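Further: cells treated in 1,536-well plates, then fixed and DAPI-stained, with nuclei counted from automated high-throughput microscope images.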

Compound `C[C@@H](Oc1cc(-c2cnn(C3CCNCC3)c2)cnc1N)c1c(Cl)ccc(F)c1Cl` [Crizotinib] + Cc1cc(N2CCOCC2)cc2[nH]c(-c3c(NC[C@@H](O)c4cccc(Cl)c4)cc[nH]c3=O)nc12 [BMS536924] (first compound 1 µM, partner dose 1 µM) has a cell count [1] of 75.1%, a cell count [2] of 98.7% and a cell count [3] of 99.4%. It also gave a cell count [4] of 86.6%, a cell count [5] of 91.3% and a cell count [6] of 99%. It also gave a cell count [7] of 119%, a cell count [8] of 73.1% and a cell count [9] of 81.4%. The cell count [10] was 75.2%.
`C[C@@H](Oc1cc(-c2cnn(C3CCNCC3)c2)cnc1N)c1c(Cl)ccc(F)c1Cl` [Crizotinib] + COCC[n+]1c2c(n(Cc3cnccn3)c1C)C(=O)c1ccccc1C2=O [YM155] (first compound 1 µM, partner dose 0.002 µM) gave a cell count [1] of 79.4%, a cell count [2] of 30.8% and a cell count [3] of 48.5%. The cell count [5] was 79.8%, the cell count [6] was 81.6% and the cell count [8] was 26.8%. For the same compound, the cell count [9] was 59.6% and the cell count [10] was 75%.
`CS(=O)(=O)CCNCc1ccc(-c2ccc3ncnc(Nc4ccc(OCc5cccc(F)c5)c(Cl)c4)c3c2)o1` [lapatinib] + C#Cc1cccc(Nc2ncnc3cc(OCCOC)c(OCCOC)cc23)c1 [erlotinib] (first compound 4 µM, partner dose 4 µM) showed a cell count [1] of 70.2%, a cell count [2] of 74.4% and a cell count [3] of 103%. It also gave a cell count [4] of 79.7%, a cell count [5] of 108% and a cell count [6] of 95.5%. It also gave a cell count [7] of 53.7%, a cell count [8] of 67.4% and a cell count [9] of 82.6%. For the same compound, the cell count [10] was 88.2%.
With `CNC(=O)c1cc(Oc2ccc(NC(=O)Nc3ccc(Cl)c(C(F)(F)F)c3)cc2)ccn1` [sorafenib] + Nc1cccc2c1CN(C1CCC(=O)NC1=O)C2=O [lenalidomide] (first compound 2 µM, partner dose 5 µM) the cell count [1] was 90.9%, the cell count [2] was 92.1% and the cell count [3] was 120%. The cell count [4] was 92.2%, the cell count [5] was 139% and the cell count [6] was 102%. For the same compound, the cell count [7] was 118%, the cell count [8] was 115% and the cell count [9] was 99.6%. It also gave a cell count [10] of 108%.
In the case of `CNC(=O)c1cc(Oc2ccc(NC(=O)Nc3ccc(Cl)c(C(F)(F)F)c3)cc2)ccn1` [sorafenib] + Nc1ccn([C@@H]2O[C@H](CO)[C@@H](O)C2(F)F)c(=O)n1 [gemcitabine] (first compound 2 µM, partner dose 0.002 µM), the cell count [1] is reported as 46.2%, the cell count [2] is reported as 37% and the cell count [3] is reported as 46.9%. The cell count [5] was 91.2%, the cell count [6] was 63.5% and the cell count [8] was 43.9%. For the same compound, the cell count [9] was 78.5% and the cell count [10] was 61.8%.
For `C=CCNC1=C2C[C@@H](C)C[C@H](OC)[C@H](O)[C@@H](C)/C=C(\C)[C@H](OC(N)=O)[C@@H](OC)/C=C\C=C(/C)C(=O)NC(=CC1=O)C2=O` [Tanespimycin] + Cn1nnc2c(C(N)=O)ncn2c1=O [temozolomide] (first compound 0.01 µM, partner dose 10 µM), the cell count [1] was 71.9%, the cell count [2] was 92.9% and the cell count [3] was 73.3%. For the same compound, the cell count [5] was 86.4%, the cell count [6] was 96.5% and the cell count [8] was 76.2%. It also gave a cell count [9] of 24% and a cell count [10] of 63%.
In the case of `C[C@@H](Oc1cc(-c2cnn(C3CCNCC3)c2)cnc1N)c1c(Cl)ccc(F)c1Cl` [Crizotinib] + COc1cc(Nc2ncc(F)c(Nc3ccc4c(n3)NC(=O)C(C)(C)O4)n2)cc(OC)c1OC [Tamatinib] (first compound 1 µM, partner dose 2 µM), the cell count [1] is reported as 70%, the cell count [2] is reported as 83% and the cell count [3] is reported as 63.7%. It also gave a cell count [5] of 41.1%, a cell count [6] of 69.5% and a cell count [8] of 58.5%. For the same compound, the cell count [9] was 25.2% and the cell count [10] was 76.7%.
`C=CCNC1=C2C[C@@H](C)C[C@H](OC)[C@H](O)[C@@H](C)/C=C(\C)[C@H](OC(N)=O)[C@@H](OC)/C=C\C=C(/C)C(=O)NC(=CC1=O)C2=O` [Tanespimycin] + CO[C@@H]1[C@H](N(C)C(=O)c2ccccc2)C[C@H]2O[C@]1(C)n1c3ccccc3c3c4c(c5c6ccccc6n2c5c31)C(=O)NC4 [Midostaurin] (first compound 0.01 µM, partner dose 0.4 µM) gave a cell count [1] of 38.8%, a cell count [2] of 74.9% and a cell count [3] of 44.2%. The cell count [4] was 68.3%, the cell count [5] was 53.4% and the cell count [6] was 79.2%. For the same compound, the cell count [7] was 79.9%, the cell count [8] was 56.3% and the cell count [9] was 8.53%. It also gave a cell count [10] of 77.7%.
In the case of `CN1CCN(c2ccc3nc(-c4c(N)c5c(F)cccc5[nH]c4=O)[nH]c3c2)CC1` [Dovitinib] + O=S(=O)(c1ccccc1)N(CC(F)(F)F)c1ccc(C(O)(C(F)(F)F)C(F)(F)F)cc1 [T0901317] (first compound 0.5 µM, partner dose 7 µM), the cell count [1] is reported as 52.4%, the cell count [2] is reported as 63.2% and the cell count [3] is reported as 63.2%. The cell count [5] was 75.1%, the cell count [6] was 80.2% and the cell count [8] was 51%. It also gave a cell count [9] of 71.9% and a cell count [10] of 85.1%.
`C=CCNC1=C2C[C@@H](C)C[C@H](OC)[C@H](O)[C@@H](C)/C=C(\C)[C@H](OC(N)=O)[C@@H](OC)/C=C\C=C(/C)C(=O)NC(=CC1=O)C2=O` [Tanespimycin] + O=C(Nc1ccccc1)c1cc([N+](=O)[O-])ccc1Cl [GW9662] (first compound 0.01 µM, partner dose 10 µM) was tested, and the cell count [1] was 42.3%, the cell count [2] was 90.2% and the cell count [3] was 55.1%. It also gave a cell count [4] of 62.7%, a cell count [5] of 72% and a cell count [6] of 73.6%. The cell count [7] was 81.4%, the cell count [8] was 59.2% and the cell count [9] was 24.5%. For the same compound, the cell count [10] was 71.2%.
Compound `C=CCNC1=C2C[C@@H](C)C[C@H](OC)[C@H](O)[C@@H](C)/C=C(\C)[C@H](OC(N)=O)[C@@H](OC)/C=C\C=C(/C)C(=O)NC(=CC1=O)C2=O` [Tanespimycin] + COc1ccc2c(c1)CCC1C2CCC2(C)C(NCCCCCCN3C(=O)C=CC3=O)CCC12 [U73122] (first compound 0.01 µM, partner dose 2 µM) has a cell count [1] of 91.9%, a cell count [2] of 106% and a cell count [3] of 104%. For the same compound, the cell count [4] was 91.4%, the cell count [5] was 112% and the cell count [6] was 97.1%. It also gave a cell count [7] of 91.4%, a cell count [8] of 64% and a cell count [9] of 21.3%. For the same compound, the cell count [10] was 80.2%.
In the case of `C[C@@H](Oc1cc(-c2cnn(C3CCNCC3)c2)cnc1N)c1c(Cl)ccc(F)c1Cl` [Crizotinib] + O=C(Nc1cccc(Cl)c1)Nc1ncc(CCNc2ncnc3ccsc23)s1 [SNS314] (first compound 1 µM, partner dose 0.004 µM), the cell count [1] is reported as 75.5%, the cell count [2] is reported as 91.6% and the cell count [3] is reported as 57.7%. It also gave a cell count [5] of 75.7%, a cell count [6] of 73.9% and a cell count [8] of 46.8%. The cell count [9] was 71.4% and the cell count [10] was 52.8%.
Compound `CS(=O)(=O)CCNCc1ccc(-c2ccc3ncnc(Nc4ccc(OCc5cccc(F)c5)c(Cl)c4)c3c2)o1` [lapatinib] + CCCCCCCCCCCC1=C(O)C(=O)C=C(O)C1=O [Embelin] (first compound 4 µM, partner dose 6 µM) has a cell count [1] of 40.4%, a cell count [2] of 86.3% and a cell count [3] of 60.6%. It also gave a cell count [4] of 83.3%, a cell count [5] of 87.9% and a cell count [6] of 68.1%. It also gave a cell count [7] of 62.9%, a cell count [8] of 69.1% and a cell count [9] of 58.6%. For the same compound, the cell count [10] was 71.4%.
Work on `CN1CCN(c2ccc3nc(-c4c(N)c5c(F)cccc5[nH]c4=O)[nH]c3c2)CC1` [Dovitinib] + NC(=O)Nc1cc(-c2cccc(F)c2)sc1C(=O)N[C@H]1CCCNC1 [AZD7762] (first compound 0.5 µM, partner dose 0.1 µM) yielded a cell count [1] of 72.2%, a cell count [2] of 94.3% and a cell count [3] of 93.7%. It also gave a cell count [4] of 58.4%, a cell count [5] of 72.3% and a cell count [6] of 74.3%. The cell count [7] was 71.1%, the cell count [8] was 50.9% and the cell count [9] was 37.2%. The cell count [10] was 92.3%.
`CN1CCN(c2ccc3nc(-c4c(N)c5c(F)cccc5[nH]c4=O)[nH]c3c2)CC1` [Dovitinib] + NCC(=O)Nc1ccc(-n2nc(C(F)(F)F)cc2-c2ccc3c(ccc4ccccc43)c2)cc1 [OSU03012] (first compound 0.5 µM, partner dose 5 µM) was tested, and the cell count [1] was 42.1%, the cell count [2] was 42.2% and the cell count [3] was 51.1%. The cell count [4] was 56%, the cell count [5] was 65.5% and the cell count [6] was 70.8%. For the same compound, the cell count [7] was 38.5%, the cell count [8] was 51.8% and the cell count [9] was 85.9%. It also gave a cell count [10] of 75.3%.
`C[C@@H](Oc1cc(-c2cnn(C3CCNCC3)c2)cnc1N)c1c(Cl)ccc(F)c1Cl` [Crizotinib] + O=C(Nc1ccccc1)c1cc([N+](=O)[O-])ccc1Cl [GW9662] (first compound 1 µM, partner dose 10 µM) showed a cell count [1] of 70.6%, a cell count [2] of 94.2% and a cell count [3] of 99.1%. The cell count [5] was 71.4%, the cell count [6] was 77.1% and the cell count [8] was 59%. It also gave a cell count [9] of 108% and a cell count [10] of 66.1%.
With `CS(=O)(=O)CCNCc1ccc(-c2ccc3ncnc(Nc4ccc(OCc5cccc(F)c5)c(Cl)c4)c3c2)o1` [lapatinib] + COc1cc(Nc2ncc(F)c(Nc3ccc4c(n3)NC(=O)C(C)(C)O4)n2)cc(OC)c1OC [Tamatinib] (first compound 4 µM, partner dose 2 µM) the cell count [1] was 43.7%, the cell count [2] was 81.2% and the cell count [3] was 49.2%. The cell count [5] was 16.1%, the cell count [6] was 49.2% and the cell count [8] was 59%. It also gave a cell count [9] of 5.13% and a cell count [10] of 80.6%.
